# About 50,000 (12%) of roughly 420,000 compounds were called active. Inconclusive results, whose numbers are uncertain, are shown with a selection of clear calls. The call rests on the fitted dose curve; in most records, active means well fitted inhibition curve with a large enough effect; inconclusive means small, poorly fitted or top-dose-only effect; inactive means flat fitted curve, though single readings scatter. No potency is given beside an inconclusive call; the fits are too rough.
# Assay: qHTS for Inhibitors of human tyrosyl-DNA phosphodiesterase 1 (TDP1): qHTS in cells in presence of CPT; further: nearly all actives have a fitted effect of over 55% in size
# Conditions: chicken DT40 Tdp1-/-;hTDP1 cells + 20 nM CPT, ATP luminescence, 48 h; activity change, negative = growth inhibition: at 46.2 µM (top of the series) unless noted
# Summary of the method: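 Cell growth measured by CellTiter-Glo luminescence after a minimum 48 h, 37 C compound exposure with 20 nM CPT in Tdp1-knockout DT40 cells stably expressing hTDP1, seeded 400/well; qHTS titration format.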
# On the % scale 0 is the no-effect control and ±100 the full control effect; potency means the concentration at half of the fitted maximal effect; tags describe the fitted curve by direction and shape.
SMILES,"activity change, negative = growth inhibition",Potency
Cc1ccc(N/N=C(\C#N)C(=N)N2CCCCCC2)cc1,inactive: -28.7%,–
CCn1c2ccccc2c2cc(C3C(C#N)=C(N)Oc4n[nH]c(COC)c43)ccc21 (centres undefined),–,"inconclusive [inhibitor, single point]"
Cc1ccc(Cl)cc1N1CCN(C(=O)c2cn(C3CCCCC3)c(=O)c3c2c2ccccc2n3C)CC1,–,active: 23.1 µM
CCc1ccccc1N(CC(=O)NC(C)(C)CC)C(=O)CCC(=O)Nc1nccs1,inactive: -13.6%,–
Cc1sc2nc3ccc(NCc4ccco4)nn3c(=O)c2c1C,–,"inconclusive [inhibitor, single point]"
COCCNC(=S)N1CCc2cc(OC)c(OC)cc2C1COc1cc(C)cc(C)c1 (centres undefined),–,active: 25.9 µM
CCCOc1ccc(N2C(=O)CC(N(CCc3ccc(OC)c(OC)c3)C(=S)Nc3ccccc3)C2=O)cc1 (centres undefined),–,"inconclusive [inhibitor, single point]"
COC(=O)c1[nH]c2ccccc2c1Sc1ccccc1,–,"inconclusive [inhibitor, partial curve, poor fit]"
CCCNC(=O)C1(C)CCCN(Cc2csc(-c3ccccc3)n2)C1 (centres undefined),–,"inconclusive [inhibitor, single point]"
Cc1ccccc1-c1nc(CS(=O)CC(=O)NCc2ccc3c(c2)OCO3)c(C)o1 (centres undefined),–,"inconclusive [inhibitor, single point]"
O=C(CSc1nnnn1-c1cccc(F)c1)NC1CCCCC1,inactive: -1.82%,–
Cc1cccc(NC(=O)c2ccc(NC(=O)c3ccccc3Br)cc2)c1,–,"inconclusive [inhibitor, single point]"
Cc1ccc(C(=O)CSc2ccccc2C(=O)O)cc1,inactive: -2.04%,–
Cc1ccc(NC(=O)Nc2ccccc2)cc1[N+](=O)[O-],–,"inconclusive [inhibitor, single point]"
O=C(O)C1C2CCC(O2)C1C(=O)Nc1ccc(F)c(Cl)c1 (centres undefined),inactive: 12.3%,–
Clc1cccc(CSc2nnc(-c3sccc3-n3cccc3)o2)c1,–,"inconclusive [inhibitor, partial curve, poor fit]"
COc1ccc(-c2oc3c(c2C#CC2(O)CCCCC2)C(OC(C)=O)CCC3)cc1 (centres undefined),–,"inconclusive [inhibitor, single point]"
CC(=O)O[C@H]1CC[C@@]2(C)[C@@H](CC[C@@H]3[C@@H]2CC[C@]2(C)[C@@H](C(C)(C)O)C[C@@H]32)C1,inactive: -27.7%,–
O=C(CSc1nnnn1-c1ccc(C(=O)O)cc1)NC1CC1,inactive: 3.72%,–
O=C(NC1CCCCC1)NC1C2CC3CC(C2)CC1C3 (centres undefined),–,"inconclusive [inhibitor, single point]"
CCN(CC)CCn1c(SCC(=O)NCc2ccco2)nc2c(sc3ccccc32)c1=O,–,"inconclusive [inhibitor, single point]"
COc1ccc(NCC(O)Cn2c(C)c(C)c3ccccc32)cc1 (centres undefined),–,"inconclusive [inhibitor, single point]"
C/C=C/c1ccc(OCCN2CCc3ccccc3C2)c(OC)c1,–,"inconclusive [inhibitor, single point]"

SMILES,"activity change, negative = growth inhibition",Potency
NC(=O)c1c(NC(=O)COC(=O)c2ccc(S(=O)(=O)Nc3ccccc3)cc2)sc2c1CCCC2,–,"inconclusive [inhibitor, single point]"
Cc1cccc(NC(=O)C2CCCCN2S(=O)(=O)c2ccccc2)c1C (centres undefined),–,"inconclusive [inhibitor, single point]"
O=C(CSc1nc2ccccc2c(=O)[nH]1)N1CCN(c2ccccc2F)CC1,–,"inconclusive [inhibitor, single point]"
COC(=O)c1c(NC(=O)CN2C(=O)NC3(CCCCC3C)C2=O)sc2c1CCC2 (centres undefined),–,"inconclusive [inhibitor, single point]"
CN1CCN(c2ncnc3ccc(-c4cccc(C#N)c4)cc23)CC1,–,"inconclusive [inhibitor, single point]"
COC(=O)c1ccccc1-c1ccc(/C=N/NC(=O)c2cc3ccccc3o2)o1,–,"inconclusive [inhibitor, single point]"
O=S(=O)(c1ccccc1C(F)(F)F)N1C=CC(C(F)(F)F)=NCC1,inactive: -3.2%,–
Cc1ccc(S(=O)(=O)c2nc(-c3ccccc3Cl)oc2N2CCN(C)CC2)cc1,–,"inconclusive [inhibitor, single point]"
O=C(Nc1cccc(Br)c1)Oc1cccc2cccnc12,–,active: 5.17 µM
CC(=O)Nc1cccc(OCCCOc2cccc([N+](=O)[O-])c2)c1,–,"inconclusive [inhibitor, single point]"
CCOC(=O)CSc1nc2cc3c(cc2c(=O)n1CCCC(=O)NCc1ccc2c(c1)OCO2)OCO3,–,"inconclusive [inhibitor, single point]"
CSCCC(NC(=O)c1ccco1)C(=O)OCC(=O)N1c2ccccc2NC(=O)C1(C)C (centres undefined),inactive: -5.18%,–
Cc1nn(C)c(C)c1NC(=O)CCCSc1nc(-c2ccco2)cc(C(F)(F)F)n1,–,"inconclusive [inhibitor, single point]"
CCCOc1ccccc1C(=O)N1CCC(c2nc3ccccc3s2)CC1,–,active: 23.1 µM
C[C@]12CC[C@H](O)C[C@@H]1CC[C@@H]1[C@@H]2CC[C@@]2(C)[C@H]1CCC(=O)[C@]21CCCO1,inconclusive: -32.8% [inhibitor],–
COc1ccc(Nc2nnc(SC(C(=O)Nc3ccc(OC)c(Cl)c3)c3ccccc3)s2)cc1 (centres undefined),–,active: 23.1 µM
CC(=O)c1c(C)[nH]c(C(=O)Nc2nc(-c3ccc(Cl)cc3)cs2)c1C,–,active: 20.6 µM
COc1ccc(/C=C/C(=O)C2C(=O)C=C(C)OC2=O)cc1O (centres undefined),–,"inconclusive [inhibitor, single point]"
CN1CCC2(CC1)C1CN(C)CC=C1C(C#N)=C(N)C2(C#N)C#N (centres undefined),–,"inconclusive [inhibitor, single point]"
O=C(c1ccc(NC(=S)Nc2ccc(Cl)c(Cl)c2)cc1)N1CCCC1,–,"inconclusive [inhibitor, single point]"
Cc1ccc2ccc(C(Nc3ccccn3)c3ccccc3)c(O)c2n1 (centres undefined),–,active: 23.1 µM
CCOC(=O)Cn1nnc(-c2ccc([N+](=O)[O-])cc2)n1,–,"inconclusive [inhibitor, single point]"
C=CCN=c1sc(C(=O)OC)cc(=O)n1CC=C,–,active: 14.6 µM

SMILES,"activity change, negative = growth inhibition",Potency
N#C/C(=C\c1ccc(N2CCOCC2)o1)c1ccccc1,–,active: 10.3 µM
CCOC(=O)[C@@H]1[C@H]2COc3ccccc3[C@H]2N2C(=O)N(c3cccc(Cl)c3)C(=O)[C@]12C,–,"inconclusive [inhibitor, single point]"
CCOC(=O)CN1C(=O)C(Sc2n[nH]c(-c3ccc(C)cc3)n2)CCc2ccccc21 (centres undefined),–,"inconclusive [inhibitor, single point]"
CCOc1ccc(N(CC(=O)NC2CCCCC2)C(=O)CSc2nnc(COc3ccccc3)o2)cc1,–,"inconclusive [inhibitor, single point]"
COc1ccccc1/C=C/C=N/n1c(-c2ccncc2)n[nH]c1=S,inactive: 0.753%,–
Cc1cc(N2CCOCC2)nc2ccc(NC(=S)N3CCCCC3C)cc12 (centres undefined),–,"inconclusive [inhibitor, single point]"
CCN(CC)c1ncnc2c1sc1nc(C)cc(C)c12,–,"inconclusive [inhibitor, single point]"
COc1ccc(C(=O)CN2C(=O)N(c3cc(C)cc(C)c3)S(=O)(=O)c3ccccc32)cc1,inconclusive: -30.4% [inhibitor],–
Clc1ccc(CCNc2ncnc3c2c(-c2ccccc2)cn3-c2ccccc2)cc1,–,"inconclusive [inhibitor, single point]"
O=C(Nc1ccc(F)cc1F)C1CCCN(c2ncnc3c2nc2n3CCCCC2)C1 (centres undefined),–,active: 13 µM
Cc1cc(NC(=O)C2COc3ccccc3O2)no1 (centres undefined),inactive: -24.7%,–
COc1ccccc1NC(=O)C(C)OC(=O)/C(=C/c1ccccc1)NC(C)=O (centres undefined),inactive: -1.16%,–
CC(=O)C1C(=O)CC(c2ccc(Cl)cc2)CC1=O (centres undefined),inactive: -6.76%,–
O=c1nc(NCc2ccco2)sc2ncccc12,inactive: -2.19%,–
CCN(C(=O)CSc1nc2cc(S(=O)(=O)N(CC)CC)ccc2n1CC)C1CCS(=O)(=O)C1 (centres undefined),inactive: -1.63%,–
CCCCN(C)CCNC(=O)c1cn(C)c(=O)c2c1c1ccccc1n2C,inactive: -24.2%,–
Cc1nc2ccccc2c2oc(C(=O)N3CCN(C4CCCCC4)CC3)cc12,–,active: 20.6 µM
CCN(c1ccccc1)S(=O)(=O)c1ccc(C(=O)Nc2ncccc2O)cc1,–,"inconclusive [inhibitor, partial curve, poor fit]"
CCc1ccccc1NC(=O)C1CCCN(c2ncnc3onc(-c4ccc(F)cc4)c23)C1 (centres undefined),–,"inconclusive [inhibitor, single point]"
COc1cccc(NC(=O)CN(C)C(=O)c2ccc3[nH]c4c(c3c2)CC(C)CC4)c1 (centres undefined),–,"inconclusive [inhibitor, single point]"
CCOc1ccc(NC(=O)c2ccccc2-c2ccccc2C(=O)O)cc1,–,"inconclusive [inhibitor, full curve, poor fit]"
Cc1cccc(NCc2ccc(N(C)C)cc2)n1,inconclusive: -31% [inhibitor],–
FC(F)(F)c1ccc(CN2C[C@@H]3C(c4ccc(Cl)nc4)C4(c5ccccc5)CC3(C4)[C@H]2c2ccccc2)cc1 (some centres undefined),–,"inconclusive [inhibitor, partial curve]"

# From PubChem BioAssay AID686979 (National Center for Advancing Translational Sciences (NCATS), 2013)
